Test results from PubChem BioAssay AID485281 (National Center for Advancing Translational Sciences (NCATS), 2010).
“And” between values parts separate entries of the source, which are not always exact repeats. Identical values can stand only once. Out of some 350,000 compounds screened, about 260 (0.074%) were called active. Inconclusive results, whose numbers are uncertain, are shown with a selection of clear calls. Calls come from the whole dose curve; as a rule, active = well fitted inhibition curve with a large enough effect; inconclusive = small, poorly fitted or top-dose-only effect; inactive = no such curve, though single readings can be large or run the other way. Potencies of inconclusive entries are doubtful fits and often do not repeat.

molecular target: Ferritin light chain (Equus caballus) (UniProt P02791); experiment: qHTS Assay for Identification of Novel General Anesthetics; settings: apoferritin/1-aminoanthracene competitive binding, fluorescence; series mostly up to 77.5 µM; note: nearly all actives have a fitted effect of over 20% in size
Method in brief: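 Horse-spleen apoferritin (10 uM) in 50% saturated 1-aminoanthracene in PBS was incubated 10 min at room temperature with compound. Fluorescence (ex 380, em 535 nm) was normalized to free and bound 1-AMA, with concentration-response fitted by a four-parameter Hill equation.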
Potency is the fitted concentration of half-maximal effect; tags give direction and shape of the fitted curve.

Sequence of UniProt P02791 (P02791 whole entry, looked up): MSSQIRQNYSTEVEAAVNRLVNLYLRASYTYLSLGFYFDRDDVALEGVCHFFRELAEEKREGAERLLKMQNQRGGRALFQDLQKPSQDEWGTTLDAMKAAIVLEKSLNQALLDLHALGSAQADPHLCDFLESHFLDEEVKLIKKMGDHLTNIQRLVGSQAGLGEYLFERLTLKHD

Row | Structure (SMILES) | Potency
1 | CCOc1cc(/C=C2\CCCC(C(=O)C(F)(F)F)=C2O)ccc1O | inconclusive: 28.2 µM [inhibitor, partial curve]
2 | CCOC(=O)C1=C(CSc2nccn2C)NC(=O)NC1c1ccc(OC)cc1 (stereo not drawn) | inconclusive: 28.2 µM [inhibitor, partial curve]
3 | COc1ccc(C(=O)NCC(O)COc2ccc(C(C)(C)C)cc2)cc1[N+](=O)[O-] (stereo not drawn) | inconclusive: 35.5 µM [inhibitor, single point]
4 | O=C(N/C=C\c1ccccc1)NCc1ccc(Cl)cc1 | inconclusive: 25.1 µM [inhibitor, partial curve]
5 | O=S1(=O)NC(C2CC2c2ccccc2)CCO1 (stereo not drawn) | inconclusive: 39.8 µM [inhibitor, partial curve]
6 | CN1CCN(NC(=O)CN2C(=O)S/C(=C\c3c(Cl)cccc3Cl)C2=O)CC1 | inconclusive: 15.8 µM [inhibitor, partial curve]
7 | COc1ccc(-c2ccccc2[C@H]2[C@@H]3C=CC[C@@H](C)[C@@H]3C(=O)N2Cc2ccccc2)cc1 | inactive
8 | CCN(CC)CCNC(=O)Cn1nc(-c2ccc(C)cc2)ccc1=O | inconclusive: 25.1 µM [inhibitor, partial curve]
9 | O=C(NC1CCCCCCC1)c1cc(F)c(F)cc1Cl | inconclusive: 25.1 µM [inhibitor, partial curve]
10 | CC(NC(=O)/C(C#N)=C/c1cn[nH]c1-c1ccccc1)c1ccccc1 (stereo not drawn) | inconclusive: 35.5 µM [inhibitor, partial curve]
11 | COc1cccc(/C=C(/C(=O)OCC(=O)NC2CCCC(C)C2C)c2ccccc2)c1 (stereo not drawn) | inconclusive: 35.5 µM [inhibitor, partial curve]
12 | COc1ccccc1N1CCN(c2ncc(C(=O)N3CCN(c4cccc(Cl)c4)CC3)c3ccccc23)CC1 | inactive
13 | CCc1ccccc1N=C1S/C(=C/c2ccccc2OCC(=O)N2CCOCC2)C(=O)N1C | inconclusive: 35.5 µM [inhibitor, partial curve]
14 | Cc1ccc(S(=O)(=O)Nc2ccc3nc(N)sc3c2)cc1 | inconclusive: 28.2 µM [inhibitor, partial curve]
15 | CCOC(=O)c1cnc2ccc(C)cc2c1Sc1ccc(F)cc1 | inconclusive: 56.2 µM [inhibitor, partial curve, poor fit]
16 | C#CCOC(=O)CCCC(=O)NCCCCCCCC | inconclusive: 35.5 µM [inhibitor, single point]
17 | COc1cc(-c2nnn(CC(=O)Nc3ccc(OC(F)(F)F)cc3)n2)cc(OC)c1OC | inactive
18 | CCOc1ccc(NN=C(C(=O)OC)C(=O)OC)c([N+](=O)[O-])c1 | inactive
19 | O=C(Nc1cc(Br)ccc1O)C1CC(c2c(F)cccc2Cl)=NO1 (stereo not drawn) | inconclusive: 28.2 µM [inhibitor, single point]
20 | CN1C(C(=O)Nc2ccc(F)cc2F)=CC(c2ccco2)=NS1(=O)=O | inconclusive: 35.5 µM [inhibitor, single point] and inconclusive: 25.1 µM [inhibitor, single point]
21 | Cc1nnc(NCc2ccccc2)c2c1nnn2Cc1ccccc1Cl | inactive

Row | Structure (SMILES) | Potency
22 | Cn1c(N)c(C(=O)COC(=O)CCC(=O)c2ccc(F)cc2)c(=O)n(C)c1=O | inconclusive: 22.4 µM [inhibitor, partial curve]
23 | CCc1ccc2nc(N(CCCN(C)C)C(=O)c3ccc(S(=O)(=O)N4CCCc5ccccc54)cc3)sc2c1 | inconclusive: 31.6 µM [inhibitor, partial curve]
24 | CSc1cccc(NC(=O)CCCOc2ccccc2)c1 | inconclusive: 31.6 µM [inhibitor, partial curve]
25 | CC1CCCCC1NC(=O)COn1nnc2ccc(Cl)cc21 (stereo not drawn) | inconclusive: 31.6 µM [inhibitor, partial curve]
26 | O=C(/C=C/c1ccccc1Cl)Nc1ccc2c(c1)C(=O)NC2=O | inactive
27 | C=CCNC(=O)NC(=O)COC(=O)COc1ccc(Br)cc1F | inconclusive: 20 µM [inhibitor, partial curve]
28 | O=C(N/N=C/c1ccc(O)cc1)c1ccc(NC(=O)c2ccccc2Br)cc1 | inconclusive: 15.8 µM [inhibitor, partial curve]
29 | O=C(COC(=O)c1ccco1)Nc1ccc(Br)cc1 | inconclusive: 39.8 µM [inhibitor, single point]
30 | CCCc1nnc(NC(=O)c2ccc(N3C(=O)C4C5C=CC(C5)C4C3=O)cc2)s1 (stereo not drawn) | inconclusive: 14.1 µM [inhibitor, partial curve]
31 | O=C(NNC(=O)c1ccccc1Br)c1ccc(SCC2CCCO2)c([N+](=O)[O-])c1 (stereo not drawn) | inconclusive: 28.2 µM [inhibitor, partial curve]
32 | Cc1cc(C)nc(NCCCc2ccccc2)n1 | inconclusive: 17.8 µM [inhibitor, partial curve]
33 | O=C(Nc1ccc(S(=O)(=O)N2CCCCC2)cc1)c1ccccc1F | inconclusive: 39.8 µM [inhibitor, single point]
34 | CC1CC(C)CN(S(=O)(=O)c2ccc(C(=O)NCc3ccco3)cc2)C1 (stereo not drawn) | inconclusive: 39.8 µM [inhibitor, single point]
35 | Cc1cc2ncn(CCCCOc3ccccc3)c2cc1C | inconclusive: 35.5 µM [inhibitor, single point] and inconclusive: 28.2 µM [inhibitor, partial curve]
36 | CCNc1nc(NC(C)C)nc(N(C#N)CCOc2ccc(Cl)cc2Cl)n1 | inactive
37 | O=[N+]([O-])c1ccc(N/N=C\c2cccn2-c2ccccc2)nc1 | inconclusive: 35.5 µM [inhibitor, partial curve]
38 | Cc1onc(-c2ccccc2)c1C(=O)OCCOc1ccc([N+](=O)[O-])cc1[N+](=O)[O-] | inactive
39 | COc1ccccc1OCC(=O)Nc1cccc(-c2nc3ccccc3o2)c1 | inconclusive: 56.2 µM [inhibitor, single point]
40 | COc1ccc(-c2ccc(=O)n(CC(=O)NC3CCc4ccccc43)n2)cc1OC (stereo not drawn) | inconclusive: 10 µM [inhibitor, partial curve]
41 | Cc1c(NS(=O)(=O)c2ccc(NC(=O)CCC(=O)O)cc2)c(=O)n(-c2ccccc2)n1C | inactive
42 | C/C(=N\NC(=S)Nc1cccc(C)c1)c1ccccc1 | inconclusive: 25.1 µM [inhibitor, partial curve]

Row | Structure (SMILES) | Potency
43 | Cc1ccc(S(=O)(=O)N2CCCCC2)cc1C(=O)OCC(=O)NC(=O)NC12CC3CC(CC(C3)C1)C2 | inconclusive: 12.6 µM [inhibitor, partial curve]
44 | Cc1[nH]n(-c2cccc3ccccc23)c(=O)c1C=Nc1ccc2[nH]c(=O)[nH]c2c1 | inconclusive: 25.1 µM [inhibitor, single point]
45 | CC(C)(NS(=O)(=O)OCC(Cl)(Cl)Cl)c1ccccc1 | inconclusive: 31.6 µM [inhibitor, partial curve]
46 | COCc1cc(C)nc2sc(C(=O)N3CCN(c4ccccc4)CC3)c(N)c12 | inconclusive: 100 µM [inhibitor, partial curve, poor fit]
47 | COc1ccccc1NC=C1C(=O)OC2(CCCCC2)OC1=O | inconclusive: 35.5 µM [inhibitor, partial curve]
48 | CC1(C)CC(=O)C2=C(C1)N(c1ccccc1C#N)C(N)=C(C#N)C2c1cccs1 (stereo not drawn) | inconclusive: 14.1 µM [inhibitor, partial curve]
49 | O=C(Cn1c(=O)c2cccn2c2ccccc21)Nc1cc(F)ccc1F | inconclusive: 35.5 µM [inhibitor, partial curve]
50 | CC(C)C(=O)Nc1cccc(NC(=O)c2cccc(Br)c2)c1 | inconclusive: 50.1 µM [inhibitor, partial curve]
51 | CCN(CC)c1nc(Nc2ccccc2)nc(Oc2ccc(=O)[nH]n2)n1 | inconclusive: 39.8 µM [inhibitor, single point]
52 | Cc1ccccc1NC(=O)C(C)c1cccc(C(=O)c2ccccc2)c1 (stereo not drawn) | inconclusive: 15.8 µM [inhibitor, partial curve]
53 | CC1(C)CC2CC(C)(CN2c2ncnc3ccccc23)C1 (stereo not drawn) | inactive
54 | Cc1ccc(CCNC(=O)Cn2nc(-c3ccc(C)cc3)ccc2=O)cc1 | inconclusive: 12.6 µM [inhibitor, partial curve]
55 | COc1ccc(NC(=O)N2CCN(c3ccc([N+](=O)[O-])cc3)CC2)cc1OC | inconclusive: 31.6 µM [inhibitor, partial curve]
56 | COc1cccc(/C=C/C(=O)OCC(=O)Nc2ccc(Cl)c(S(=O)(=O)N(C)C)c2)c1 | inconclusive: 11.2 µM [inhibitor, partial curve]
57 | Cc1ccccc1NC(=O)CNc1ccc(Cl)c(C(F)(F)F)c1 | inconclusive: 35.5 µM [inhibitor, single point]
58 | O=C(O)C1C2C=CC(C2)C1C(=O)NCc1cccs1 (stereo not drawn) | inconclusive: 22.4 µM [inhibitor, partial curve]
59 | COc1ccccc1N1CCN(C(=O)c2ccc(CN3CCc4ccccc4C3)cc2)CC1 | inconclusive: 28.2 µM [inhibitor, partial curve]
60 | COc1ccc(-n2c(O)c(/C=N/NS(=O)(=O)c3ccc(C)c([N+](=O)[O-])c3)c3ccccc3c2=O)cc1OC | inactive
61 | COC(=O)c1ccc(Oc2c(Cl)cccc2[N+](=O)[O-])cc1 | inconclusive: 50.1 µM [inhibitor, single point]
62 | CC(=O)c1cnc2nc(SCc3ccccc3C)nn2c1C | inconclusive: 22.4 µM [inhibitor, partial curve]
63 | COc1cc(CNCCc2ccccc2F)ccc1OCC(=O)N1CCCCC1 | inconclusive: 31.6 µM [inhibitor, partial curve]
